Experimental data from paper PMC6362269.
No constants are given. Whether binding was seen depends on the method and setting. For part of these data: Binding seen in cells or lysates may run through a third protein. Some results given as binding are weak or reduced against the parent protein; the word gives no strength. For part of these data: Tags and fused reporters may be left off the sequences shown.

T1: Tim40-FLAG (S. cerevisiae) (UniProt P36046)
T1 sequence: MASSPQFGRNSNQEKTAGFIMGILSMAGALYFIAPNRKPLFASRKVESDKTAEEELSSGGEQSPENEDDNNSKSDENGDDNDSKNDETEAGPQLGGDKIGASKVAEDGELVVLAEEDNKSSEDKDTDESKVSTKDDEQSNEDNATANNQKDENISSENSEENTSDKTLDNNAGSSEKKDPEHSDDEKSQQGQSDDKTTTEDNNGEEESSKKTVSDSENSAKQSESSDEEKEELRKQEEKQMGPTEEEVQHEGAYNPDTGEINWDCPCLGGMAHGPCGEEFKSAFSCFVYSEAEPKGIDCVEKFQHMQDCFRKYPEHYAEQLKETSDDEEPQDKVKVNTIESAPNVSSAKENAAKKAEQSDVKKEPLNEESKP

T2: Tim40/Mia40 (wild type, in yeast mitochondria) (S. cerevisiae (endogenous in yeast mitochondria)) (UniProt P36046)
T2 sequence: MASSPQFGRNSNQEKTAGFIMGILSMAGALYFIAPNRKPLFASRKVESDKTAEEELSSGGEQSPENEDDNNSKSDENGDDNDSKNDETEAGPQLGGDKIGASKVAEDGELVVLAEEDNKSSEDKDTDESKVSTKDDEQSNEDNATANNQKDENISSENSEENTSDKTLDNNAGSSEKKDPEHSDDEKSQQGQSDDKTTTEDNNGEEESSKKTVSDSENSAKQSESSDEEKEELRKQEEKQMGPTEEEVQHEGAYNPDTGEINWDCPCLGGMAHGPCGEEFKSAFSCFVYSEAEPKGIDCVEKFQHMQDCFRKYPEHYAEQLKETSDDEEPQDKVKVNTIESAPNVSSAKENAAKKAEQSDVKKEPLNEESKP

T3: cytosolic receptor domain of rat Tom20 (Tom20^sol-His) (Rattus norvegicus) (UniProt Q62760)
T3 sequence: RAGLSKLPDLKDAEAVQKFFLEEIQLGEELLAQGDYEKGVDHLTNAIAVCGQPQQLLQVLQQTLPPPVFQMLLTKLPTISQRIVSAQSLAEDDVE


Experiments:
[1] = molecular target: T1, Tim40-FLAG (S. cerevisiae); assay: co-IP; radiolabeled Mic19C146S imported for 20 min at 25 °C into mitochondria with Tim40-FLAG; 50 mM IAA; solubilized with 1% digitonin (20 mM Tris-HCl pH 7.4, 150 mM NaCl); anti-FLAG M2-agarose, 2 h at 4 °C; non-reducing SDS-PAGE with 5 M urea; radioimaging
[2] = molecular target: T2, Tim40/Mia40 (wild type, in yeast mitochondria) (S. cerevisiae (endogenous in yeast mitochondria)); assay: mixed-disulfide conjugate on non-reducing SDS-PAGE; radiolabeled Mic19 variants imported into isolated yeast mitochondria at 25 °C; treated with 50 μg/ml PK and 50 mM IAA; SDS-PAGE with 5 M urea without β-mercaptoethanol; radioimaging; 75 kD Mic19-Tim40 conjugate
[3] = molecular target: T3, cytosolic receptor domain of rat Tom20 (Tom20^sol-His) (Rattus norvegicus); assay: pull-down; 0.5 µg Tom20^sol-His immobilised on Ni-NTA resin; mitochondria (1 mg protein) solubilized with 1% digitonin in 20 mM Tris-HCl pH 7.4, 300 mM NaCl, 10% glycerol; 14 h at 4 °C; washed with 50 mM imidazole; eluted with 500 mM imidazole; immunoblotting; only the target purified

| binding [1] | binding [2] | binding [3] | Binder |
| --- | --- | --- | --- |
| – | binds weakly | – | wild-type Mic19 (radiolabeled) (protein, UniProt P43594 1-170, N-myristoylation at Gly2 (in reticulocyte lysate); [35S]-methionine label) MGSNTSKVGAGAEKQQVYTPLTQIDFSQSLVSQLDSSKESDYVTKQNAEKFIEKKVSQRLSNLEVETLKKFEDTLNNSLLSDDDKDAVDGISSSSLNNQIESLNKKLTLFDQLELQKLEKYGGAKGKSDKKTDNGSISIKAKLTECLLANKGKPLNCYEEMEEFKKLVMG |
| – | – | binds | Mic19WT-FLAG (protein, UniProt P43594 1-170, N-myristoylation at Gly2) MGSNTSKVGAGAEKQQVYTPLTQIDFSQSLVSQLDSSKESDYVTKQNAEKFIEKKVSQRLSNLEVETLKKFEDTLNNSLLSDDDKDAVDGISSSSLNNQIESLNKKLTLFDQLELQKLEKYGGAKGKSDKKTDNGSISIKAKLTECLLANKGKPLNCYEEMEEFKKLVMG |

The next lines start with the binder.

| Binder | binding [1] | binding [2] | binding [3] |
| --- | --- | --- | --- |
| Mic19C146S (radiolabeled) (protein, UniProt P43594 1-170, [35S]-methionine label) MGSNTSKVGAGAEKQQVYTPLTQIDFSQSLVSQLDSSKESDYVTKQNAEKFIEKKVSQRLSNLEVETLKKFEDTLNNSLLSDDDKDAVDGISSSSLNNQIESLNKKLTLFDQLELQKLEKYGGAKGKSDKKTDNGSISIKAKLTESLLANKGKPLNCYEEMEEFKKLVMG | binds | binds | – |
| Mic19C146S/C157S (radiolabeled) (protein, UniProt P43594 1-170, [35S]-methionine label) MGSNTSKVGAGAEKQQVYTPLTQIDFSQSLVSQLDSSKESDYVTKQNAEKFIEKKVSQRLSNLEVETLKKFEDTLNNSLLSDDDKDAVDGISSSSLNNQIESLNKKLTLFDQLELQKLEKYGGAKGKSDKKTDNGSISIKAKLTESLLANKGKPLNSYEEMEEFKKLVMG | – | no binding | – |
| Mic19C157S (radiolabeled) (protein, UniProt P43594 1-170, [35S]-methionine label) MGSNTSKVGAGAEKQQVYTPLTQIDFSQSLVSQLDSSKESDYVTKQNAEKFIEKKVSQRLSNLEVETLKKFEDTLNNSLLSDDDKDAVDGISSSSLNNQIESLNKKLTLFDQLELQKLEKYGGAKGKSDKKTDNGSISIKAKLTECLLANKGKPLNSYEEMEEFKKLVMG | – | no binding | – |
